Hit rate of the full screen: of about 130,000 compounds, about 1,200 (0.92%) were called active. This list was built around the results that the source calls inconclusive (neither active nor inactive); the mix of calls is not that of the screen. Calls come from the whole dose curve; as a rule, active = well fitted cell-killing curve with a large enough effect; inconclusive = small, poorly fitted or top-dose-only effect; inactive = no such curve, though single readings can be large or run the other way. Potencies of inconclusive entries are doubtful fits and often do not repeat.
assay: qHTS Screen for Compounds that Selectively Target Cancer Cells with p53 Mutations: Cytotoxicity of p53ts Cells at the Permissive Temperature; settings: H1299-p53A138V at 32C, ATP luminescence viability, 24 h; series mostly up to 46.1 µM; note: nearly all actives have a fitted effect of over 55% in size
Procedure, shortened: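 ATP-content luminescence (ATPlite) read-out after 24 h compound exposure at 32C in H1299-p53A138V cells (600/well). Tested up to 46 uM. Normalized to DMSO (0%) and 100 uM tamoxifen (100% killing); Hill-fit AC50.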
Potency is the fitted concentration of half-maximal effect; tags give direction and shape of the fitted curve.

Structure (SMILES)	Potency
CCC(=O)Nc1cc2nn(-c3ccc(C)cc3)nc2cc1C	inconclusive: 2 µM [cytotoxic, full curve]
CCc1nnc2c3ccccc3nc(N3CCN(c4cc(C)ccc4C)CC3)n12	inactive
O=C(NCc1ccco1)Nc1ccc(Br)cc1Cl	inactive
Cc1cc(N)c2ccccc2[n+]1CCCCCCCCCCCCCC[n+]1c(C)cc(N)c2ccccc21	inconclusive: 31.6 µM [cytotoxic, single point]
CN1CCN2c3ccccc3Cc3ccccc3[C@@H]2C1	inconclusive: 20 µM [cytotoxic, single point]
CCCn1c(-c2ccc(F)cc2)nc2c(NCC(C)(C)CN(C)C)nc(C)nc21	inactive
COc1ccc(OC)c(Nc2c3c(nc4ccccc24)CCC3)c1	inconclusive: 22.4 µM [cytotoxic, single point]
CC(=O)c1cccc(NC(=O)N2CCC(CN3CCCCC3)CC2)c1	inactive
Cc1c(O)nc(SC2CC(=O)N(c3ccccc3)C2=O)[nH]c1=O (configuration not stated)	inactive
CCS(=O)(=O)c1ncc(Cl)c(C(=O)N(Cc2ccccc2)c2ccc(OC)cc2)n1	active: 20 µM
CC1(C)Cc2ccccc2-c2nnc(SCC(=O)N3CCN(c4ccccc4)CC3)n21	inactive
CC(C)OCCCN1C(=O)c2[nH]nc(-c3ccccc3O)c2C1c1cccc(OCc2ccccc2)c1 (configuration not stated)	inconclusive: 35.5 µM [cytotoxic, single point]
c1ccc(-c2ccc(N3CC4(CCNCC4)C3)cc2)cc1	active: 20 µM
CNS(=O)(=O)c1cn(CC(=O)N2CCN(c3ccccc3OC)CC2)cc1S(=O)(=O)NC	inactive
Cn1c(CSc2nc3ccccc3s2)nc2ccccc21	inconclusive: 20 µM [cytotoxic, single point]
Cc1c(Cl)cccc1Nc1nn2c(=O)c3ccc(C(=O)NCCc4ccccc4)cc3nc2s1	inconclusive: 15.8 µM [cytotoxic, single point]
CC(=O)c1cccc(NC(=O)c2cccn2-c2nnc(N3CCCCC3)s2)c1	inactive
CCOC(=O)c1c(C)[nH]c(C)c1S(=O)(=O)N1CCC(C(=O)Nc2ccc(F)cc2F)CC1	inactive
Cc1cccc(CNc2nc(-c3cccc(NS(C)(=O)=O)c3)nc3ccccc23)c1	inconclusive: 31.6 µM [cytotoxic, single point]
c1ccc(CCc2nc(-c3ccccn3)no2)cc1	inactive
CC(C)(C)n1cnc2cc(NCc3ccccc3Cl)ccc21	inconclusive: 10 µM [cytotoxic, partial curve, poor fit]
O=C(Nc1cccnc1)c1cc(-c2ccc3c(c2)OCO3)on1	inconclusive: 12.6 µM [cytotoxic, partial curve]

Source: PubChem BioAssay AID924 (National Center for Advancing Translational Sciences (NCATS), 2007)
